Measurements taken from the supplement of paper PMC10126150.
Values marked as one replicate rest on one cluster of the flow cell; about a third of the high ones do not repeat.

Tested on: ATP
Assay: switch fluorescence ratio, 500 uM ATP over buffer (Cy3 cluster intensity, sum of 5 cycles each) (fold (ratio)); higher = stronger signal-on switching upon ATP binding; sequences stand for … in TCGTCGGCAGCGTCAGATGTGTATAAGAGACAGTTTTTTTTTTTTTTTTTTTTTTTTT…TC
Details: aptamer strand: ATP DNA aptamer (quencher-CACCTGGGGGAGTATTGCGGAGGAAGG + anchor), 100 nM annealed; ATP concentration: 500 uM; one replicate
Summary of the method: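 The fluorescence ratio divides summed target-cycle Cy3 intensity by summed buffer-cycle Cy3 intensity for each cluster and is averaged per switch-domain sequence. Cy3-labelled switching-strand clusters on a modified Illumina MiSeq flow-cell were annealed to 100 nM quencher-labelled ATP aptamer, then imaged in selection buffer and again after 15 min with 500 uM ATP at 22 °C. Five such cycles were run, with NaOH stripping and re-annealing between them, and clusters outside 100-1000 RFU were excluded.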
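Further: ATP exposure 15 min at 22 °C before imaging.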

Sequence | switch fluorescence ratio
AAGCGCTCAG | 1.03
GTTTGTGTGG | 0.969
AGAGAGTGGG | 0.993
CGAGGAACGT | 1.01
TAAGACTCTG | 0.865
CATCGTGGAT | 1.03
TCCCCTAGGT | 3.55
GCACATCAGG | 1.16
CGGGTCGGAC | 1.03
TCTCCTTTGT | 0.96
ATTTGTACAT | 1.02
AGGAAGAAAT | 0.992
CGATGCGACT | 1.06
ATATAATTTC | 1.01
AGCGACGATG | 1.04
TCGTTAGTGT | 1
TTCGTTAAGG | 0.99
TTGGGCGGAT | 0.974
TGCGTTGGGT | 0.986
ACACAAGTCC | 1.05
TGAGGACGTC | 1.03
CCTAACGCGG | 2.87
TTGGCTCAGC | 1.02
TACAAAATTC | 1.03
AAAAGCTTCC | 3.2
TACGTAATTA | 1.22

Sequence | switch fluorescence ratio
ACACATGGAG | 0.963
GCGAGAGGCT | 1.04
TACCGGCCTC | 1.7
CACCGATCAA | 1.32
TATCACGAG | 0.965
GGTGGGCATT | 0.984
TCAACGATG | 1.01
CACGATGGGT | 0.978
CTACTCGGTG | 1.01
GTCGTTTGAG | 0.95
AAAAGGCGGG | 1.05
GCGCTAAGTC | 1.03
TTCAAGACCG | 1.01
GCACCTTCGC | 1.76
TTGTTTCGAA | 0.986
GTGTTAGCAG | 1.02
AGGCGTAACT | 1.01
AAAGGAGAAG | 0.989
AGGTAGCCTG | 0.983
CCTCAACATA | 3.37
ACGGCGTGAT | 0.976
CCCATTCACA | 1.04
TGGACGTTTT | 0.994
TAAATTCCTC | 1.09
AATGATGATG | 0.963
TGACAATGTA | 1.02

Sequence | switch fluorescence ratio
AGCGAGTGTT | 0.985
CTCATAAATG | 1.04
GGGATTGCGC | 1.01
TTCACAGTTG | 0.979
GTGCCCCGGA | 0.988
GACTTAGGC | 1.06
CTCATGAGAT | 0.993
TTGTTGTTGA | 1.01
TCTTATCAAG | 1.02
GTTTAAACCC | 1.04
TGCTAGCCAC | 1.04
ACTGCAACCG | 1.25
GCAGAAGAGG | 1
CAACCGTCCT | 1.26
GTTCGGCCGA | 0.965
AGTATGTAGT | 0.996
GAGTGGAACA | 0.993
GTCGCAGGAA | 0.985
CTGCGATG | 1.14
GGGTCAGGCG | 1.03
GCGGTAAAAC | 1.04
TAACTCATAA | 1.01
GTCAGGGCAA | 0.961
GCCGGGTTA | 1.06
ACCGCCGCCG | 1.2
CCAAAAACTG | 1.37

Sequence | switch fluorescence ratio
TCGGGTATAA | 1.04
GGATAAAAC | 0.992
GACTTTCCTA | 1.08
AACTGGAATT | 1.01
GTTAAAAGCT | 1.02
CACCGGCCGG | 0.974
TATCGTTTCG | 0.991
GATCTGTCCT | 1.01
GGGTCAAGGT | 0.972
TGCTGCGCGG | 1.06
ATTCTAAGCT | 1.01
TTAGTAAGA | 1.01
ACCTGGGCGT | 1.03
CCTCGGCCGC | 3.04
ACGGTCTGCC | 1.01
CTTCTTAATC | 1.05
ATGAAGGAC | 1.06
TGCAAGAAAG | 1.06
CCCAACGAAT | 1.01
TCCTAATCAG | 1.01
GTAATCCTAA | 1.02
AAATATCGAA | 0.986
GGGATAAACG | 0.947
GGTGAGTGCT | 1
GGCCAACGAG | 1.04
CACTACGGGC | 1.09

Sequence | switch fluorescence ratio
GCTTGAACGT | 0.956
CTGGACGGA | 0.958
AAGCGGATTG | 1
ACTACAGGCG | 1.12
GGTGCTGGGC | 1.02
TGGAGCTTG | 1.03
TTAGTTAGCG | 0.968
GATTCCCGA | 1.02
TTTGAATTGT | 1.03
TGCGTATGAC | 0.981
TTAAGGGTG | 1.03
TTTGGTAAT | 0.955
AACGGCCGCG | 1.13
CAAGTTTACA | 1.04
TCAAGAAACT | 1.02
ATAATAGACG | 1.07
GACTATTTGT | 1.03
CACCTCGTAG | 1.03
TGGGTCTTC | 0.977
ATTTAAAAAT | 1
AACCGGCCTA | 1.21
GGAACACCAT | 1.03
CAGTTTGGAT | 0.993
GCTTATCCAA | 1.01
GCTATCGTCC | 1.04
GCAATATCAG | 1.19

Sequence | switch fluorescence ratio
TTTCGGCCCA | 0.967
AGATGTGACT | 0.983
TTTACATACA | 1.22
ATATACACCA | 1.18
ACCTACACGG | 1.29
CGTTAATCAT | 0.988
GACATACCTT | 0.958
TTTCAAAGTG | 1.03
TTCGTGCATT | 1.04
TTACAGATGG | 1.02
AAGCTATCT | 1.01
GCGTAACGTA | 0.999
AGCGCAGTCG | 0.949
GTACCCATTA | 1.01
CATTTCTTGC | 0.999
CACGGACGGG | 1.17
TCCGCTAGG | 1.1
GTTACGGATA | 1.02
ATGCGGATAA | 0.997
GTGATGATTG | 1.02
ATGATGGTTG | 0.992
TGACACCAG | 0.975
TTAAGGGGCG | 1.02
ATTGTTCACT | 0.949
TACCGGGCCT | 0.998
TTCCCACAAA | 0.997

Sequence | switch fluorescence ratio
GTTGGCCCTG | 0.991
ATTCTAAAAA | 0.949
TCGTTTAGAA | 0.998
TCAATTCCTG | 1.07
GTCCTCCATG | 1.19
TGATGTTAGG | 0.947
GGGAGTCGGC | 1.07
CACCCCTGG | 1.2
AGATGTAGAA | 0.982
ACTTCTAAAA | 1.07
GTATTACGAA | 0.96
GAATTATTTA | 0.953
CTATATGACC | 1
CCCCACAAGG | 1.65
GGGGGTGCGT | 0.938
CTCCTATTTC | 1.08
TCTTATGTTG | 0.987
GGTGAACGTT | 0.993
GAATAGCCAT | 1.01
GGACTAAATT | 1.48
ATAAAAGCAT | 0.981
ACTATCTTGT | 0.982
